Test results reported in PubChem BioAssay AID588591 (National Center for Advancing Translational Sciences (NCATS), 2011).
The whole screen tested about 390,000 compounds, of which about 4,700 (1.2%) were called active. This list was built around the results that the source calls inconclusive (neither active nor inactive); the mix of calls is not that of the screen. Calls come from the whole dose curve; as a rule, active = well fitted inhibition curve with a large enough effect; inconclusive = small, poorly fitted or top-dose-only effect, or another doubt; inactive = no such curve, though single readings can be large or run the other way. Potencies of inconclusive entries are doubtful fits and often do not repeat.

These molecules were tested against DNA polymerase eta (Homo sapiens) (UniProt Q9Y253) (assay: qHTS for Inhibitors of Polymerase Eta). Conditions: recombinant Pol eta, fluorescent DNA replication assay; series mostly up to 114 µM; activity change, negative = inhibition: at the top concentration.
Summary of the method: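 Pol eta (10 nM) was preincubated with compounds for 15 min at room temperature, after which fluorescent replication substrate (50 nM final) was added to start the reaction. Fluorescence was read kinetically at 0 and 10 min.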
% is set by controls: 0 for no effect and ±100 for the full control effect; potency is the fitted concentration of half-maximal effect; tags give direction and shape of the fitted curve.

Sequence of UniProt Q9Y253 (Q9Y253 whole entry, looked up): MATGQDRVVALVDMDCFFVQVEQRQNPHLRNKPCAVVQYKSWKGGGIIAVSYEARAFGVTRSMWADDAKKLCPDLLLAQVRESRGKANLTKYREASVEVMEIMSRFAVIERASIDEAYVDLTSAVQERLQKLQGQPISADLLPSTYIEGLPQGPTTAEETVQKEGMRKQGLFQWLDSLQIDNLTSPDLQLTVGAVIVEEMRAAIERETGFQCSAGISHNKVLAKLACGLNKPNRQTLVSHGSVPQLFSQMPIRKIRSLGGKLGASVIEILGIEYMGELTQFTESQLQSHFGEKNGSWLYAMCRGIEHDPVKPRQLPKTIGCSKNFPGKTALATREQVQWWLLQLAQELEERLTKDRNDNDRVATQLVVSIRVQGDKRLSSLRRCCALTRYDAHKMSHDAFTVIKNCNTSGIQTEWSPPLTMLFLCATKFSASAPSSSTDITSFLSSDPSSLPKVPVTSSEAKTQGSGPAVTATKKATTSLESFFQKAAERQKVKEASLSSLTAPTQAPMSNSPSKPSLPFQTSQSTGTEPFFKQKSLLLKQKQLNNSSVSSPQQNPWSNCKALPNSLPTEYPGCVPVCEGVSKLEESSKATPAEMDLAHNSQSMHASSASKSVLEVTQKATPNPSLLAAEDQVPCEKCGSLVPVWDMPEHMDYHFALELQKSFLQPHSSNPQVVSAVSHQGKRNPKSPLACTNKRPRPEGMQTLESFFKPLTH

SMILES	Potency	activity change, negative = inhibition
S=c1[nH]nc(-c2ccccc2Cl)n1/N=C/C=C/c1ccco1	active: 50.1 µM	
COC(=O)c1c(NC(=O)c2ccc(S(=O)(=O)N3CCCCC3)cc2)sc2c1CCN(C)C2		inactive: -16.5%
COc1cc(/C=C2/C(=N)N3C=CSC3=NC2=O)ccc1OCCCOc1cc(C)ccc1C	inconclusive: 31.6 µM [inhibitor, partial curve, poor fit]	
COc1ccc(OC)c(C(=O)N(C[C@H]2CC[C@@H]([C@@H]3CC[C@H](CO)O3)O2)C(C(=O)NC(C)(C)C)c2ccc(-c3ccccc3)cc2)c1 (stereo not given in full)		inactive: -9.52%
CCC1CCCCN1C(=O)CSc1nnc2nc(C)cc(C)n12 (stereo not given)	inconclusive: 25.1 µM [inhibitor, partial curve]	
O=c1oc(-c2ccc(O)c(O)c2)cc2cc(O)cc(O)c12	active: 10 µM	
COc1ccccc1NC(=O)C1=C(C)Nc2ncnn2C1c1ccc[nH]1 (stereo not given)	active: 31.6 µM	
O=C(c1cc2c(s1)CCC2)N1CCN(c2ccccc2)CC1	active: 10 µM	
COc1ccc(CNC(=O)Cn2ccc3cc(S(=O)(=O)N4CCCC4)ccc32)cc1OC		inactive: -3.84%
O=[N+]([O-])c1cc(/C=N/n2c(-c3ccncc3)n[nH]c2=S)ccc1Cl	active: 50.1 µM	
Cc1ccc(-n2nnnc2SCC(=O)Nc2sccc2C#N)cc1	inconclusive: 17.8 µM [inhibitor, partial curve]	
COc1ccc(NS(=O)(=O)c2ccc(O)c(NC(=O)c3cc4c(C)nn(-c5ccc(F)cc5)c4s3)c2)cc1	active: 20 µM	
CCOC(=O)[C@H]1NN=C(C(=O)OC)[C@@H]1c1ccccc1	inconclusive: 89.1 µM [inhibitor, partial curve, poor fit]	
CC(C)CCN1CCN(Cc2ccc3nsnc3c2)CC1CCO (stereo not given)		inactive: -2.28%
CCc1ccc(NC(=O)CSc2nnc(-c3nonc3NC(C)=O)n2-c2ccccc2)cc1		inactive: -19%
CCN(CC)c1ccc2nc3ccc(N)cc3[n+](-c3ccccc3)c2c1	inconclusive: 56.2 µM [inhibitor, partial curve, poor fit]	
Cc1ccc(S(=O)(=O)OCC(=O)Nc2ccc(C(=O)O)c(O)c2)cc1	active: 3.16 µM	
CCc1ccc(-n2c(=O)c3cccnc3n2CC(=O)N(CC)c2cccc(C)c2)cc1	inconclusive: 50.1 µM [inhibitor, full curve, poor fit]	
O=C(Nc1nc(-c2ccccc2)cs1)c1ccc(=O)[nH]c1		inactive: -15.3%
CN1CCN(c2ncc3c(n2)CCN(Cc2ccccc2Cl)C3)CC1		inactive: -6.32%
COc1ccc(N2CC(C(=O)Nc3nnc(SCC(=O)NC4CCCC4)s3)CC2=O)cc1 (stereo not given)	inconclusive: 31.6 µM [inhibitor, single point]	
O=C(c1ccco1)N1CCN(C(=O)c2cc3c(=O)oc4ccccc4c3s2)CC1	inconclusive: 12.6 µM [inhibitor, full curve]	
COc1ccc(N(CC(=O)Nc2cccc(SC)c2)S(C)(=O)=O)cc1	inconclusive: 100 µM [inhibitor, partial curve, poor fit]	
Cc1ccc(S(=O)(=O)N2CCOCC2)cc1NC(=O)COC(=O)c1ccc(Cl)s1		inactive: -17.4%

SMILES	Potency	activity change, negative = inhibition
CCOc1cc(NC(=O)c2ccccc2OC)c(OCC)cc1NC(=O)c1ccccc1	inconclusive: 100 µM [inhibitor, partial curve, poor fit]	
O=C(CNC(=O)c1ccccc1F)N/N=C/c1ccc2c(c1)OCO2	inconclusive: 89.1 µM [inhibitor, partial curve, poor fit]	
Cc1ccc(CCNc2nc3ccccc3c3nc(-c4ccccc4)nn23)cc1		inactive: -16.8%
Cc1cc(NC(=O)CSc2sc3c(O)cc(=O)[nH]c3c2C#N)ccc1Br	active: 28.2 µM	
O=C(CCc1nc2ccccc2c(=O)[nH]1)Nc1cc(Cl)ccc1N1CCCCC1	inconclusive: 50.1 µM [inhibitor, partial curve]	
O=C(Nc1cccc(S(=O)(=O)N2CCOCC2)c1)C1CCN(S(=O)(=O)c2ccccc2)CC1	inconclusive: 89.1 µM [inhibitor, partial curve, poor fit]	
COc1c(F)c(F)c(C(=O)Nc2ccccc2N2CCN(C(C)=O)CC2)c(F)c1F	inconclusive: 31.6 µM [inhibitor, single point]	
N#CC1=C2SCN(Cc3ccco3)CN2C(=O)CC1c1c(F)cccc1Cl (stereo not given)	inconclusive: 89.1 µM [inhibitor, single point]	
N#Cc1c(C(F)(F)F)cc(-c2cccs2)nc1SCC(=O)Nc1ccc(Cl)cc1		inactive: -15.1%
O=C(COC(=O)c1ccccc1NCCO)Nc1cccc(S(=O)(=O)NC2=NCCCCC2)c1	inconclusive: 56.2 µM [inhibitor, partial curve, poor fit]	
O=C(Nc1ccc(-c2nc3ncccc3o2)cc1)c1ccc([N+](=O)[O-])o1	active: 11.2 µM	
Cc1ccc(S(=O)(=O)Nc2csc(C)c2C(=O)O)cc1	active: 17.8 µM	
CCOC1=C/C(=C/c2c(N)n3nc(CC(=O)N4CCCCC4)sc3nc2=O)C=CC1=O	inconclusive: 20 µM [inhibitor, full curve, poor fit]	
COc1cccc(S(=O)(=O)NCc2ccc(C(=O)Nc3cccc(Cl)c3)cc2)c1	inconclusive: 50.1 µM [inhibitor, partial curve, poor fit]	
C/C(=N\Nc1ccc(Cl)c(C(=O)O)c1)c1ccccn1		inactive: -12.6%
Cc1ccc(N2CCN(C(=O)CCc3c(C)nc4ncnn4c3C)CC2)c(C)c1		inactive: 2.64%
O=C(N/N=C/c1ccncc1)c1cc([N+](=O)[O-])cc([N+](=O)[O-])c1O	active: 25.1 µM	
CCc1ccc(NC(=O)c2cnn(-c3c(C)cccc3C)c2C2CCNCC2)cc1		inactive: -3.55%
Cc1cc(C(=O)Nc2sccc2C#N)c2ccccc2n1	active: 44.7 µM	
COc1ccc(NC(=O)Cn2nnc(-c3ccccc3F)n2)cc1Cl		inactive: 7.3%
COCc1ccc(-c2c(-c3ccccc3OC)sc3cc4c(cc23)OCO4)cc1	inconclusive: 89.1 µM [inhibitor, partial curve, poor fit]	
COc1cc2cc(C(=O)N/N=C/c3ccc(F)cc3)[nH]c2cc1OC	inconclusive: 50.1 µM [inhibitor, partial curve, poor fit]	
Cc1cc(=O)oc2cc(OCC(=O)Nc3nnc(C(C)C)s3)ccc12	inconclusive: 31.6 µM [inhibitor, single point]	
CC(=O)Nc1ccc(C(=O)CSc2nnc3ccc4ccccc4n23)cc1		inactive: -14.5%

SMILES	Potency	activity change, negative = inhibition
O=C1NC(=S)N/C1=C/c1cccnc1	inconclusive: 89.1 µM [inhibitor, partial curve, poor fit]	
Cc1ccc(CN2CC(C(=O)N(CC(C)C)c3c(N)n(Cc4ccccc4)c(=O)[nH]c3=O)CC2=O)cc1 (stereo not given)	inconclusive: 112 µM [inhibitor, partial curve, poor fit]	
CCOC(=O)c1cccc(NC(=O)c2cc3cc4ccc(C)cc4nc3s2)c1	inconclusive: 79.4 µM [inhibitor, partial curve]	
COc1ccc2c(c1)CC/C(=C\c1ccc(OC)c(Cn3nc(C)cc3C)c1)C2=O	inconclusive: 17.8 µM [inhibitor, partial curve, poor fit]	
O=C(Cc1ccc(Cl)c(Cl)c1)Nc1ccc2[nH]c(=O)[nH]c2c1		inactive: -1.04%
Cn1c(=O)[nH]c(=O)c2c1[nH]c(=S)n2CCCc1ccccc1	inconclusive: 89.1 µM [inhibitor, partial curve, poor fit]	
COc1ccc(Cn2c(O)c(/C=N/NC(=O)c3cccnc3)c3ccccc3c2=O)cc1	inconclusive: 20 µM [inhibitor, full curve]	
O=C(Nc1ccc(N2CCN(C(=O)c3ccccc3)CC2)c(Cl)c1)c1ccco1	inconclusive: 31.6 µM [inhibitor, single point]	
O=C(c1ccccc1)N1CCN(c2ccc([N+](=O)[O-])c(NCc3cccnc3)c2)CC1	inconclusive: 22.4 µM [inhibitor, partial curve, poor fit]	
CCN(CC)C(=O)Cn1cc(C(=O)C(=O)N2CCN(c3ccc([N+](=O)[O-])cc3)CC2)c2ccccc21		inactive: -14.3%
COc1cn(CC(=O)Nc2cc(C)ccc2C)c(CN2CCCCC2)cc1=O		inactive: -6.28%
O=C(O)c1cccc(N/N=C/c2cc(Br)cc(Br)c2O)c1	inconclusive: 15.8 µM [inhibitor, full curve]	
O=C(Nc1ccc2oc(-c3cccc(Cl)c3Cl)nc2c1)c1cccc(Br)c1	inconclusive: 89.1 µM [inhibitor, single point]	
Cc1ccc(C)c(NC(=O)CCNS(=O)(=O)c2ccc3[nH]c(=O)oc3c2)c1	active: 22.4 µM	
COc1ccc(CNC(=O)C(c2cccs2)N(Cc2ccco2)C(=O)Cc2cccs2)cc1 (stereo not given)	inconclusive: 35.5 µM [inhibitor, partial curve, poor fit]	
C#CCn1cc(/C=C2\NC(=O)NC2=O)c2ccccc21	inconclusive: 79.4 µM [inhibitor, partial curve]	
COC(=O)c1cccc(NC(=O)CSc2nc(C)cc(=O)[nH]2)c1	active: 20 µM	
COc1cccc(CNC(=O)c2nnn(CC(=O)Nc3ccc(C)c(C)c3)c2N)c1	inconclusive: 20 µM [inhibitor, single point]	
Nc1nc(Nc2ccccc2)nc2ccccc12		inactive: -9.98%
Cc1cc(C)cc(Nc2cc(C(=O)NCc3ccccc3)c3ccccc3n2)c1		inactive: -22.2%
CCCC(=O)Nc1ccc(Sc2ccc([N+](=O)[O-])cc2)cc1		inactive: -11.2%
C=CCn1c(=NC(=O)c2ccco2)sc2cc(C(=O)OC)ccc21	inconclusive: 10 µM [inhibitor, full curve, poor fit]	
